Data reported in PubChem BioAssay (NCI).
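Assay format: 96-well plates, 48-hour exposure. GI50 marks 50% less growth.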 Not every entry of the source has a single result; some have several. This is not the full list of results. The source may hold further records. For part of these data: The tests behind the records often covered other concentration ranges, which the source does not state; a value can be the end of its range. For part of these data: The values listed for one entry repeat one measurement across runs, samples, wells, individuals or studies. Records carry a tag for their origin. The letters are not those of the source and start again with each entry.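 The concentration for full growth arrest is given as TGI.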

Tests used:
Assay in all cases: NCI anticancer screen, dose series, 48 h
SF-268 CNS = tested on: SF-268 CNS
ACHN renal = tested on: ACHN renal
U251 CNS = tested on: U251 CNS
HS 578T breast = tested on: HS 578T breast
OVCAR-5 ovarian = tested on: OVCAR-5 ovarian
SNB-75 CNS = tested on: SNB-75 CNS
K-562 leukemia = tested on: K-562 leukemia
SF-295 CNS = tested on: SF-295 CNS
SF-539 CNS = tested on: SF-539 CNS
RXF 393 renal = tested on: RXF 393 renal
MCF7 breast = tested on: MCF7 breast
SR leukemia = tested on: SR leukemia
786-0 renal = tested on: 786-0 renal
UO-31 renal = tested on: UO-31 renal
UACC-62 melanoma = tested on: UACC-62 melanoma
LOX IMVI melanoma = tested on: LOX IMVI melanoma
NCI-H460 lung = tested on: NCI-H460 lung
MOLT-4 leukemia = tested on: MOLT-4 leukemia
SW-620 colon = tested on: SW-620 colon
KM12 colon = tested on: KM12 colon
NCI-H522 lung = tested on: NCI-H522 lung
RPMI-8226 leukemia = tested on: RPMI-8226 leukemia
NCI/ADR-RES ovarian = tested on: NCI/ADR-RES ovarian
SK-MEL-5 melanoma = tested on: SK-MEL-5 melanoma
CCRF-CEM leukemia = tested on: CCRF-CEM leukemia
PC-3 prostate = tested on: PC-3 prostate
IGROV1 ovarian = tested on: IGROV1 ovarian
M14 melanoma = tested on: M14 melanoma

COC(=O)c1ccc2c(C(=Nc3ccc(N(C)C(=O)CN4CCN(C)CC4)cc3)c3ccccc3)c(O)[nH]c2c1
TGI (SF-268 CNS): 5.3 µM [sample A, mean of 3 tests] and > 100 µM [sample B, 1 test]
TGI (ACHN renal): 6.41 µM [sample A, mean of 3 tests] and > 100 µM [sample B, mean of 2 tests]
TGI (U251 CNS): 6.79 µM [sample A, mean of 2 tests] and > 100 µM [sample B, 1 test]
TGI (HS 578T breast): 5.11 µM [sample A, mean of 3 tests] and > 62.6 µM [sample B, mean of 2 tests]
TGI (OVCAR-5 ovarian): 9.74 µM [sample A, mean of 2 tests] and > 100 µM [sample B, mean of 2 tests]

CCc1ccc([O-])c(C=NCCCN(C)CCCN=Cc2cc(C)ccc2[O-])c1.[Co+3].[N-]=[N+]=[N-]
TGI (SNB-75 CNS): 4.96 µg/mL [1 test] and 32.4 µg/mL [mean of 2 tests]
TGI (K-562 leukemia): 5 µg/mL [1 test] and > 150 µg/mL [mean of 2 tests]

CCN(CCO)CCCOc1ccc2c(Nc3cc(CC(=O)Nc4cccc(F)c4)[nH]n3)ncnc2c1
GI50 (SF-295 CNS): 14.8 µM [sample A, mean of 2 tests] and 186 nM [sample B, mean of 2 tests]
GI50 (SF-539 CNS): 1.95 µM [sample A, mean of 2 tests] and 142 nM [sample B, mean of 2 tests]
GI50 (SNB-75 CNS): 3.61 µM [sample A, mean of 2 tests] and 24.3 nM [sample B, 1 test]
TGI (SNB-75 CNS): 55.9 µM [sample A, mean of 2 tests] and 262 nM [sample B, 1 test]
GI50 (RXF 393 renal): 30.5 µM [sample A, mean of 2 tests] and 25 nM [sample B, 1 test]
TGI (RXF 393 renal): > 94.6 µM [sample A, mean of 2 tests] and 122 nM [sample B, 1 test]
GI50 (MCF7 breast): 4.36 µM [sample A, mean of 2 tests] and 79.4 nM [sample B, mean of 2 tests]
GI50 (SR leukemia): 723 nM [sample A, 1 test] and 16.2 nM [sample B, mean of 2 tests]

COc1cc(/C=C/c2cc(O)c(C/C=C(\C)CC/C=C(\C)CO)c(O)c2)cc2c1O[C@]1(C)CC[C@@H](O)C(C)(C)[C@H]1C2
TGI (786-0 renal): 1.2 µM [1 test] and > 100 µM [mean of 2 tests]
TGI (UO-31 renal): 3.5 µM [1 test] and > 100 µM [mean of 2 tests]
GI50 (UACC-62 melanoma): 229 nM [1 test] and 5.52 µM [mean of 2 tests]
TGI (UACC-62 melanoma): 1.39 µM [1 test] and 27 µM [mean of 2 tests]
GI50 (LOX IMVI melanoma): 329 nM [1 test] and 10.9 µM [mean of 2 tests]
TGI (LOX IMVI melanoma): 3.83 µM [1 test] and 42.5 µM [mean of 2 tests]
GI50 (NCI-H460 lung): 313 nM [1 test] and 10.7 µM [mean of 2 tests]
GI50 (U251 CNS): 267 nM [1 test] and 3.23 µM [mean of 2 tests]
GI50 (MOLT-4 leukemia): 31.1 nM [1 test] and 3.44 µM [mean of 2 tests]
TGI (SW-620 colon): 6.07 µM [1 test] and > 89.7 µM [mean of 2 tests]
GI50 (K-562 leukemia): 268 nM [1 test] and 4.88 µM [mean of 2 tests]
TGI (K-562 leukemia): 2.39 µM [1 test] and > 33.5 µM [mean of 2 tests]
GI50 (KM12 colon): 1.55 µM [1 test] and > 69.1 µM [mean of 2 tests]
GI50 (NCI-H522 lung): 4.53 µM [1 test] and > 63.2 µM [mean of 2 tests]
TGI (NCI-H522 lung): 8.7 µM [1 test] and > 100 µM [mean of 2 tests]
GI50 (HS 578T breast): 62.7 nM [1 test] and 1.08 µM [mean of 2 tests]
TGI (HS 578T breast): 895 nM [1 test] and 10.2 µM [mean of 2 tests]
GI50 (RXF 393 renal): 357 nM and 19.6 µM
GI50 (RPMI-8226 leukemia): 3.25 nM and 428 nM
TGI (RPMI-8226 leukemia): 28.8 nM and 2.54 µM
GI50 (MCF7 breast): 341 nM [1 test] and 17.7 µM [mean of 2 tests]
TGI (MCF7 breast): 4.57 µM [1 test] and > 83.8 µM [mean of 2 tests]
GI50 (NCI/ADR-RES ovarian): 7.99 µM [1 test] and > 82.4 µM [mean of 2 tests]
GI50 (SK-MEL-5 melanoma): 260 nM [1 test] and 5.22 µM [mean of 2 tests]
TGI (SK-MEL-5 melanoma): 1.92 µM [1 test] and 21.9 µM [mean of 2 tests]
GI50 (CCRF-CEM leukemia): 214 nM and 2.43 µM
TGI (CCRF-CEM leukemia): 4.45 µM and > 100 µM
GI50 (PC-3 prostate): 68.8 nM [1 test] and 11.2 µM [mean of 2 tests]

CNc1ncc2cc(-c3cc(NC(=O)NCCC(C)(C)C)c(F)cc3C)c(C)nc2n1
TGI (IGROV1 ovarian): 17.4 µM [sample A, mean of 2 tests] and 1.28 µM [sample B, mean of 2 tests]
TGI (M14 melanoma): 165 nM [sample A, mean of 2 tests] and > 2.03 µM [sample B, mean of 2 tests]
